# Source: a collection of fitness landscapes (doi:10.1126/science.1257360)
# Some of the results follow.
# B1: PhoQ; a variant is named by its letters at X, in order, P23837 (parent)
# chain: MKKLLRLFFPLSLRVRFLLATAAVVLVLSLAYGMVALIGYSVSFDKTTFRLLRGESNLFYTLAKWENNKLHVELPENIDKQSPTMTLIYDENGQLLWAQRDVPWLMKMIQPDWLKSNGFHEIEADVNDTSLLLSGDHSIQQQLQEVREDDDDAEMTHSVAVNVYPATSRMPKLTIVVVDTIPVELKSSYMVWSWFIYVLSANLLLVIPLLWVAAWWSLRPIEALAKEVRELEEHNRELLNPATTRELTSLVRNLNRLLKSERERYDKYRTTLTDLTHSLKTPLXXLQXXLRSLRSEKMSVSDAEPVMLEQISRISQQIGYYLHRASMRGGTLLSRELHPVAPLLDNLTSALNKVYQRKGVNISLDISPEISFVGEQNDFVEVMGNVLDNACKYCLEFVEISARQTDEHLYIVVEDDGPGIPLSKREVIFDRGQRVDTLRPGQGVGLAVAREITEQYEGKIVAGESMLGGARMEVIFGRQHSAPKDE
# Variants of: B1
# Experiment: enrichment ratio after two sorts for PhoP signalling (ratio (wild type AVST 3.29)); higher = more functional
# Details: with PhoP (E. coli)
row,Variant,enrichment ratio
1,ACCE,≤ 0.25
2,PVLH,≤ 0.25
3,TNNH,0.972
4,RTSK,≤ 0.25
5,DLAC,≤ 0.25
6,HAKV,≤ 0.25
7,VTGW,≤ 0.25
8,RFWK,≤ 0.25
9,GKYM,≤ 0.25
10,TEPD,≤ 0.25
11,SCHN,≤ 0.25
12,DRQD,≤ 0.25
13,YDCT,≤ 0.25
14,QNHN,≤ 0.25
15,HMTP,≤ 0.25
16,KRYC,≤ 0.25
17,SVVA,1.32
18,VATD,≤ 0.25
19,ACML,17.8
20,SFSD,≤ 0.25
21,LRIY,≤ 0.25
22,REQM,≤ 0.25
23,HHMP,≤ 0.25
24,NMWA,≤ 0.25

row,Variant,enrichment ratio
1,GLVQ,≤ 0.25
2,ACHI,≤ 0.25
3,IMDK,≤ 0.25
4,YAEW,≤ 0.25
5,VTVM,≤ 0.25
6,PAER,≤ 0.25
7,TPSR,≤ 0.25
8,DMQL,≤ 0.25
9,FFSI,≤ 0.25
10,KMDF,≤ 0.25
11,HFWR,≤ 0.25
12,FNTY,≤ 0.25
13,KYGN,≤ 0.25
14,IWYG,≤ 0.25
15,SFMR,≤ 0.25
16,PFPM,≤ 0.25
17,HNVG,≤ 0.25
18,HTKC,≤ 0.25
19,FATN,≤ 0.25
20,SRGM,≤ 0.25
21,PGTT,≤ 0.25
22,HWNL,≤ 0.25
23,NQHI,≤ 0.25
24,RHDF,≤ 0.25

row,Variant,enrichment ratio
1,EDGH,≤ 0.25
2,YSCD,≤ 0.25
3,TNLQ,≤ 0.25
4,RFYH,≤ 0.25
5,WSSN,≤ 0.25
6,GGQE,≤ 0.25
7,YYPH,≤ 0.25
8,TSYT,7.45
9,MCRS,≤ 0.25
10,FCSK,1.8
11,DFVK,≤ 0.25
12,IIQL,≤ 0.25
13,LGTC,≤ 0.25
14,RMTW,≤ 0.25
15,VIPR,≤ 0.25
16,GLAT,≤ 0.25
17,SYRT,≤ 0.25
18,DFAC,≤ 0.25
19,DHAI,≤ 0.25
20,QCHH,≤ 0.25
21,YYGT,≤ 0.25
22,FYKL,≤ 0.25
23,NNLW,≤ 0.25
24,THPT,≤ 0.25

row,Variant,enrichment ratio
1,HVFV,≤ 0.25
2,MIAG,3.44
3,PFVD,≤ 0.25
4,KTKT,≤ 0.25
5,EPVF,≤ 0.25
6,NMYV,≤ 0.25
7,THYF,≤ 0.25
8,TSMC,7.72
9,FQQN,≤ 0.25
10,ICEL,≤ 0.25
11,HTPF,≤ 0.25
12,SDSS,0.569
13,PSNR,≤ 0.25
14,VTYD,≤ 0.25
15,LGYF,≤ 0.25
16,VKIT,≤ 0.25
17,AWGG,≤ 0.25
18,TMEM,≤ 0.25
19,TVVL,≤ 0.25
20,PPYV,≤ 0.25
21,VPWL,≤ 0.25
22,NDFP,≤ 0.25
23,GDVR,≤ 0.25
24,KCVQ,≤ 0.25

row,Variant,enrichment ratio
1,NGFR,≤ 0.25
2,VYMK,≤ 0.25
3,SLVR,0.339
4,FFVL,≤ 0.25
5,ILII,≤ 0.25
6,VPGP,≤ 0.25
7,HFDN,≤ 0.25
8,DPQS,≤ 0.25
9,MSWA,1.59
10,HQCE,≤ 0.25
11,NQQN,≤ 0.25
12,MWWR,≤ 0.25
13,QMSV,10.5
14,VLVF,≤ 0.25
15,LGRI,≤ 0.25
16,HMYI,≤ 0.25
17,KSWY,≤ 0.25
18,HRYL,≤ 0.25
19,NNGN,≤ 0.25
20,STKI,≤ 0.25
21,VFLR,≤ 0.25
22,HRSA,≤ 0.25
23,SVPN,≤ 0.25
24,MRDT,≤ 0.25

row,Variant,enrichment ratio
1,DETL,≤ 0.25
2,PSFD,≤ 0.25
3,KCFG,≤ 0.25
4,AREV,≤ 0.25
5,DNTY,≤ 0.25
6,DILP,≤ 0.25
7,DDPW,≤ 0.25
8,VWER,≤ 0.25
9,ACVQ,2.26
10,ECRR,≤ 0.25
11,VFFC,≤ 0.25
12,GKTM,1.84
13,RITG,≤ 0.25
14,HNFL,≤ 0.25
15,NRPP,≤ 0.25
16,SCCD,16.2
17,LLGD,≤ 0.25
18,ASFM,6.83
19,LHWM,≤ 0.25
20,YAGI,≤ 0.25
21,AWPP,≤ 0.25
22,SQKS,≤ 0.25
23,YGNQ,≤ 0.25
24,TGYK,≤ 0.25

row,Variant,enrichment ratio
1,FVKI,≤ 0.25
2,MRAH,≤ 0.25
3,PPYI,≤ 0.25
4,PICI,≤ 0.25
5,IKEH,≤ 0.25
6,ISQQ,≤ 0.25
7,VMAM,1.87
8,NRNL,≤ 0.25
9,EVFL,≤ 0.25
10,AISA,10.4
11,NWPQ,≤ 0.25
12,KATF,≤ 0.25
13,TGIS,≤ 0.25
14,IAFH,≤ 0.25
15,HMIM,≤ 0.25
16,FHWY,≤ 0.25
17,DIFY,≤ 0.25
18,VYLF,≤ 0.25
19,TWDH,≤ 0.25
20,NAWV,≤ 0.25
21,EIKR,≤ 0.25
22,QSWC,7.98
23,QEWV,≤ 0.25
24,LNNF,≤ 0.25

row,Variant,enrichment ratio
1,PNRF,≤ 0.25
2,IGMS,≤ 0.25
3,THRH,≤ 0.25
4,TPFM,≤ 0.25
5,ISFC,≤ 0.25
6,SQMV,22.1
7,FWPS,≤ 0.25
8,VGWF,≤ 0.25
9,NCVH,≤ 0.25
10,RTLM,≤ 0.25
11,APKC,≤ 0.25
12,GRWG,≤ 0.25
13,LSIM,≤ 0.25
14,GNDL,≤ 0.25
15,NSYS,≤ 0.25
16,QQKY,≤ 0.25
17,MCGH,9.4
18,HHDI,≤ 0.25
19,WQEF,≤ 0.25
20,GLHD,≤ 0.25
21,FNEL,≤ 0.25
22,ETAV,≤ 0.25
23,DKPY,≤ 0.25
24,NKAY,≤ 0.25

row,Variant,enrichment ratio
1,ELFH,≤ 0.25
2,FFQR,≤ 0.25
3,HWEL,≤ 0.25
4,KHSM,≤ 0.25
5,LKKR,≤ 0.25
6,VPYL,≤ 0.25
7,YMWL,≤ 0.25
8,LNMN,≤ 0.25
9,FYYG,≤ 0.25
10,YEAD,≤ 0.25
11,MCGS,6.52
12,DMWK,≤ 0.25
13,FNNR,≤ 0.25
14,QWSG,≤ 0.25
15,GISN,10
16,SEGH,6.63
17,HNNP,≤ 0.25
18,NGSY,≤ 0.25
19,TKPM,≤ 0.25
20,YNAQ,≤ 0.25
21,LDSH,≤ 0.25
22,FWMF,≤ 0.25
23,FCHW,≤ 0.25
24,ENTV,≤ 0.25

row,Variant,enrichment ratio
1,PQPH,≤ 0.25
2,AKLA,5.14
3,HNWT,≤ 0.25
4,NSWK,≤ 0.25
5,YKWL,≤ 0.25
6,KKKD,≤ 0.25
7,VNQK,≤ 0.25
8,FPSM,≤ 0.25
9,VKPK,≤ 0.25
10,DEMI,≤ 0.25
11,WSAI,≤ 0.25
12,KRCC,≤ 0.25
13,AFTE,≤ 0.25
14,FTVV,≤ 0.25
15,DENV,≤ 0.25
16,FSDH,≤ 0.25
17,GAYP,≤ 0.25
18,FPER,≤ 0.25
19,MFSQ,≤ 0.25
20,NYAC,≤ 0.25
21,TKTF,2.46
22,PDCC,≤ 0.25
23,GHKH,≤ 0.25
24,NAAF,≤ 0.25

row,Variant,enrichment ratio
1,SHCY,6.35
2,HEPV,≤ 0.25
3,YIVK,≤ 0.25
4,HWMR,≤ 0.25
5,VPKQ,≤ 0.25
6,SKFW,≤ 0.25
7,YGEQ,≤ 0.25
8,TLRC,≤ 0.25
9,HPCM,≤ 0.25
10,NIDK,≤ 0.25
11,SPNT,≤ 0.25
12,AASY,≤ 0.25
13,IFEV,≤ 0.25
14,LCSQ,≤ 0.25
15,RVEV,≤ 0.25
16,RWNA,≤ 0.25
17,REHH,≤ 0.25
18,MISY,≤ 0.25
19,GRCR,≤ 0.25
20,AWEN,≤ 0.25
21,CLVS,≤ 0.25
22,TVLW,≤ 0.25
23,IKSP,≤ 0.25
24,PYKK,≤ 0.25

row,Variant,enrichment ratio
1,GLRE,≤ 0.25
2,DGIH,≤ 0.25
3,QSGL,4.64
4,NTMI,≤ 0.25
5,RQQA,≤ 0.25
6,METM,4.44
7,THAC,6.19
8,HEVR,≤ 0.25
9,PRED,≤ 0.25
10,PDIY,≤ 0.25
11,LRFD,≤ 0.25
12,VKRE,≤ 0.25
13,HSHT,≤ 0.25
14,RGPM,≤ 0.25
15,NVSK,≤ 0.25
16,AFVH,≤ 0.25
17,NCIK,≤ 0.25
18,FHPI,≤ 0.25
19,KQIP,≤ 0.25
20,FEAF,≤ 0.25
21,IINF,≤ 0.25
22,YWPQ,≤ 0.25
23,TTKD,≤ 0.25
24,KQDH,≤ 0.25

row,Variant,enrichment ratio
1,STDE,≤ 0.25
2,KPMA,≤ 0.25
3,FNII,≤ 0.25
4,GYGQ,≤ 0.25
5,VIEL,≤ 0.25
6,RHGF,≤ 0.25
7,HRTN,6.33
8,YTHP,≤ 0.25
9,DCSW,≤ 0.25
10,YGAN,≤ 0.25
11,LACK,≤ 0.25
12,NIDC,≤ 0.25
13,KPAF,≤ 0.25
14,GLEI,≤ 0.25
15,WLFF,≤ 0.25
16,ETMY,≤ 0.25
17,FKVC,≤ 0.25
18,RENL,≤ 0.25
